± gives the standard deviation of the averaged measurements. Growth of baker's yeast expressing single-residue variants of Pneumocystis jirovecii dihydrofolate reductase in 8.8 or 44 µM methotrexate (about 75% and 90% inhibition of the wild type). Selection coefficient per generation; 0 = like wild type, above 0 = less sensitive, below 0 = more sensitive or loss of function. No active / inactive call per row; the paper calls resistant above 0.220 (8.8 µM) or 0.243 (44 µM) together with a significance test. At 44 µM about 15% of codons end with one read or none, so the lowest values are floors (replicate rank correlation 0.74; 0.94 at 8.8 µM).
B1: UniProt A0EPZ9; numbered along this chain (parent)
chain: MDWQKSLTLIVALTLSRGIGLKNDLPWKLKSDMMFFSRVTSGLLVTRSTGQMNVVLMGRKTWESLPAHSRPLKNRINVVISRQEVLDLGGGAYHARSLDDALALLSQIYDSTSKIQLNRVFVIGGGELCKAAMEHSRLNRIIATVIHNEVDCDVFFPIDFRSSQSCLPWRKQDHSVLEAWVGSKVPQGKINENGFIYEFEMWIRDI

Variants of: B1
Experiment: selection coefficient against synonymous wild-type codons (log2 per generation); higher = faster growth than wild type
Conditions: with Saccharomyces cerevisiae carrying the variant on a plasmid
Procedure: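 Pooled growth of yeast carrying single-residue variants of P. jirovecii dihydrofolate reductase (own DFR1 gene intact), two passages at 30 °C, three cultures, sequenced before and after. Codons with under 15 starting reads are left out; codons of one change are averaged.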

Variant	selection coefficient against synonymous wild-type codons (log2) (methotrexate 8.8 µM)	selection coefficient against synonymous wild-type codons (log2) (methotrexate 44 µM)
T49S	-0.0114 ± 0.049	-0.114 ± 0.16
T49C	-0.146 ± 0.064	-0.157 ± 0.16
T49D	0.0419 ± 0.016	-0.0293 ± 0.061
T49V	-0.0294 ± 0.07	-0.0725 ± 0.09
T49F	-0.256 ± 0.036	-0.0682 ± 0.14
T49K	-0.11 ± 0.089	-0.0931 ± 0.12
S48H	-0.0715 ± 0.017	-0.0696 ± 0.052
S48G	0.0438 ± 0.015	0.013 ± 0.078
S48N	0.0625 ± 0.045	0.0332 ± 0.068
S48L	-0.159 ± 0.044	-0.19 ± 0.088
S48V	-0.16 ± 0.039	-0.0783 ± 0.095
S48P	-0.0912 ± 0.043	-0.058 ± 0.075
S48K	-0.0096 ± 0.033	-0.0219 ± 0.073
S48Q	-0.000565 ± 0.027	-0.0584 ± 0.091
S48W	-0.337 ± 0.1	-0.205 ± 0.18
S48A	-0.00902 ± 0.045	-0.0393 ± 0.085
S48M	-0.105 ± 0.042	-0.0109 ± 0.076
S48D	0.153 ± 0.06	0.15 ± 0.093
S48C	-0.17 ± 0.053	-0.123 ± 0.11
S48I	-0.197 ± 0.025	-0.169 ± 0.13

Variant	selection coefficient against synonymous wild-type codons (log2) (methotrexate 8.8 µM)	selection coefficient against synonymous wild-type codons (log2) (methotrexate 44 µM)
S48F	-0.256 ± 0.12	-0.147 ± 0.1
S48T	-0.0137 ± 0.05	-0.0723 ± 0.074
S48E	0.14 ± 0.019	0.0554 ± 0.084
S48Y	-0.326 ± 0.12	-0.232 ± 0.14
S48R	-0.0942 ± 0.045	-0.0675 ± 0.12
V45L	-0.0367 ± 0.084	-0.121 ± 0.14
V45D	0.305 ± 0.021	0.231 ± 0.031
V45W	-0.178 ± 0.17	-0.0423 ± 0.12
V45Y	-0.161 ± 0.22	-0.143 ± 0.083
V45S	0.139 ± 0.061	0.157 ± 0.12
V45E	0.324 ± 0.059	0.342 ± 0.024
V45K	0.119 ± 0.12	0.173 ± 0.078
V45T	0.145 ± 0.061	0.0329 ± 0.14
V45I	-0.0378 ± 0.14	0.0414 ± 0.21
V45C	0.0459 ± 0.039	0.0194 ± 0.075
V45Q	0.157 ± 0.025	0.097 ± 0.035
V45R	0.0466 ± 0.04	0.15 ± 0.087
V45A	0.101 ± 0.065	0.118 ± 0.16
V45F	-0.112 ± 0.023	-0.0573 ± 0.058
V45G	0.123 ± 0.055	0.149 ± 0.053

Variant	selection coefficient against synonymous wild-type codons (log2) (methotrexate 8.8 µM)	selection coefficient against synonymous wild-type codons (log2) (methotrexate 44 µM)
R47L	-0.273 ± 0.1	-0.254 ± 0.12
R47M	-0.181 ± 0.095	-0.226 ± 0.19
R47D	0.11 ± 0.024	0.114 ± 0.039
R47F	-0.513 ± 0.13	-0.271 ± 0.23
R47P	0.182 ± 0.047	0.174 ± 0.019
R47N	0.118 ± 0.016	0.14 ± 0.044
R47A	0.0361 ± 0.051	0.0311 ± 0.075
R47W	-0.305 ± 0.013	-0.283 ± 0.2
R47Y	-0.247 ± 0.037	-0.26 ± 0.2
R47K	0.0452 ± 0.034	-0.12 ± 0.12
R47I	-0.309 ± 0.095	-0.365 ± 0.092
R47E	0.231 ± 0.0095	0.21 ± 0.04
R47T	-0.0194 ± 0.07	-0.0695 ± 0.13
R47C	-0.0851 ± 0.025	-0.0665 ± 0.079
R47G	0.0892 ± 0.039	0.109 ± 0.07
R47V	-0.279 ± 0.11	-0.133 ± 0.07
R47H	-0.00202 ± 0.07	-0.0181 ± 0.1
R47S	0.0405 ± 0.047	0.0292 ± 0.074

— the supplement of paper PMC11125491
